In a compilation of properties of binary mixtures (doi:10.1016/j.jct.2016.09.024):
Some of these densities may be calculated back from excess volumes.

Experiment: xn = mol fraction of the nth substance listed
Details: 100 kPa

CCO + CCCC[N+](C)(C)C.O=S(=O)([N-]S(=O)(=O)C(F)(F)F)C(F)(F)F
x1 = 1
Details	mass density [kg/m3]
293.15 K	789.5
308.15 K	776.4

CCO + C[N+](C)(C)CCO.O=S(=O)([N-]S(=O)(=O)C(F)(F)F)C(F)(F)F
x1 = 1
Details	mass density [kg/m3]
303.15 K	780.8
308.15 K	776.4

CCO + CCCC[N+](C)(CCCC)CCCC.O=S(=O)([N-]S(=O)(=O)C(F)(F)F)C(F)(F)F
x1 = 1
Details	mass density [kg/m3]
293.15 K	789.5
298.15 K	785.2
303.15 K	780.8

CCCC[N+](C)(C)C.O=S(=O)([N-]S(=O)(=O)C(F)(F)F)C(F)(F)F + CCO
mass density [kg/m3]
Details	293.15 K	298.15 K	303.15 K	308.15 K
x1 = 0.01	819.1	–	810.4	805.9
x2 = 0.0605	1389.8	1384.6	1380.2	1375.7
x2 = 0.101	1383.8	1379.2	1374.7	–
x2 = 0.1991	–	1363.5	1359	1354.5
x2 = 0.3	1348.5	1343.9	–	1334.9
x2 = 0.4096	1322.2	1317.6	1313	1308.4
x2 = 0.4998	1294.8	1290.2	1285.5	–
x2 = 0.5996	1255.7	1251.1	–	1241.9
x2 = 0.6504	1231.1	1226.4	–	1217.1
x2 = 0.7	1202.7	1198	–	1188.7
x2 = 0.7501	–	1163.4	1158.8	1154.1
x2 = 0.7997	1126.3	1121.7	1117.1	1112.4
x2 = 0.8514	1072	1067.3	–	1057.9
x2 = 0.88	1037.4	–	1025.9	1021.2
x2 = 0.92	973.5	969	966.2	959.7
x2 = 0.93	955.4	951.1	946.6	941.8
x2 = 0.94	936.6	931.9	927.3	922.8
x2 = 0.95	–	911.3	906.8	902.3
x2 = 0.9609	892.4	888	883.5	879
x2 = 0.97	–	866.6	–	857.7
x2 = 0.98	–	841.6	837.2	832.8

CCCC[N+](C)(CCCC)CCCC.O=S(=O)([N-]S(=O)(=O)C(F)(F)F)C(F)(F)F + CCO
mass density [kg/m3]
Details	293.15 K	298.15 K	303.15 K	308.15 K
x1 = 0.0149	–	829.1	824.8	820.4
x2 = 0	1265.3	1261.1	1256.9	–
x2 = 0.0636	–	1256	1252	1247.8
x2 = 0.0711	1258.9	1256.6	–	1246.7
x2 = 0.1235	–	1250.8	1246.6	–
x2 = 0.2012	1247.4	1243.1	1238.7	1234.5
x2 = 0.3995	1221.1	–	1212.3	1207.9
x2 = 0.6009	1176.4	1172	1167.8	1162.8
x2 = 0.7187	1132.3	1127.8	1123.2	1118.8
x2 = 0.8118	1078	1073.7	–	1063.9
x2 = 0.8605	1036	–	–	1023
x2 = 0.9076	982.1	977.6	972.7	967.9
x2 = 0.93	948.7	944.2	–	935
x2 = 0.95	914.3	–	–	899.7
x2 = 0.96	–	888.8	–	880
x2 = 0.9702	870.7	–	861.9	–

C[N+](C)(C)CCO.O=S(=O)([N-]S(=O)(=O)C(F)(F)F)C(F)(F)F + CCO
mass density [kg/m3]
Details	293.15 K	298.15 K	303.15 K	308.15 K
x2 = 0.7051	1274	1266.4	1261.6	1256.8
x2 = 0.801	–	1174.3	1169.1	1164
x2 = 0.9002	1037.4	1029.8	1026	1020.1
x2 = 0.9601	907.2	900.8	896.3	891.8
